# Laboratory results: the BET-seq Pho4 binding data (Le et al. 2018)
# The other results are listed elsewhere or left out. The energies were worked out here from pooled read counts, against the library average; single values are noisy.
# Molecular target: T1, Pho4 (S. cerevisiae) (UniProt P07270)
# T1 sequence: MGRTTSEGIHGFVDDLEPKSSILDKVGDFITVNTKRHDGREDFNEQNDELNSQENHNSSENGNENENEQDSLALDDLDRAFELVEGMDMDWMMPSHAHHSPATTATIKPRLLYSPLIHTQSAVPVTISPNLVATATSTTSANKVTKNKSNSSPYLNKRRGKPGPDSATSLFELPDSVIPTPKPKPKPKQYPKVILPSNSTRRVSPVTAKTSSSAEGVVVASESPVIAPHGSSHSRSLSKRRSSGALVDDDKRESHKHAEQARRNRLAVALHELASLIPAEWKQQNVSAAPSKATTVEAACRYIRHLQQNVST
# Assay: relative binding free energy (BET-seq); higher = weaker binding
# Conditions: reference: library average
row,Sequence,relative binding free energy
1,AGGATCACGTGACGTT,0.35 kcal/mol
2,AAAGACACGTGTGTGG,-0.05 kcal/mol
3,GTTTACACGTGCGGAG,0.06 kcal/mol
4,GGGGGCACGTGGCATG,-0.27 kcal/mol
5,ATGTGCACGTGGGTCT,-0.19 kcal/mol
6,TTTGGCACGTGTCGCT,-0.01 kcal/mol
7,GTTATCACGTGGCGCG,0.38 kcal/mol
8,AATTTCACGTGTCATA,0.27 kcal/mol
9,GGATTCACGTGGGGAT,0.41 kcal/mol
10,TACGTCACGTGTTAAT,0.07 kcal/mol
11,ATCTTCACGTGAGTAA,0.42 kcal/mol
12,GTCATCACGTGTTTTG,0.26 kcal/mol
13,TTCATCACGTGGGTGC,-0.01 kcal/mol
14,AGTTGCACGTGCTTGT,0.02 kcal/mol
15,TTTCTCACGTGTCTGG,0.2 kcal/mol
16,GCTTTCACGTGGGGAA,0.22 kcal/mol
17,TACTGCACGTGAAGGG,0.25 kcal/mol
18,TTATGCACGTGCAGGT,-0.08 kcal/mol
19,AGAGTCACGTGGGTAA,0.02 kcal/mol
20,TGGGGCACGTGTGTAG,-0.02 kcal/mol
21,GTAATCACGTGCGGTG,0.22 kcal/mol
22,AGGTGCACGTGCGGTA,-0.11 kcal/mol
23,GGTAGCACGTGTTCTA,-0.06 kcal/mol

row,Sequence,relative binding free energy
1,AGTTGCACGTGCATGA,-0.12 kcal/mol
2,TGTGTCACGTGTTTAT,0.14 kcal/mol
3,GAGGCCACGTGAGTGT,0.17 kcal/mol
4,TAGTGCACGTGTGCAA,0.15 kcal/mol
5,GTCGGCACGTGGTTTT,-0.05 kcal/mol
6,TGTCGCACGTGGAATG,0.03 kcal/mol
7,GTATGCACGTGGAGGG,-0.05 kcal/mol
8,AGATCCACGTGTGGGT,0.1 kcal/mol
9,GTTTGCACGTGGTAGT,0.02 kcal/mol
10,ATTTCCACGTGTTTAG,0.09 kcal/mol
11,TTGAGCACGTGCTTTA,-0.2 kcal/mol
12,TTGTGCACGTGAAGCT,0.19 kcal/mol
13,TGTGGCACGTGTAGGG,0 kcal/mol
14,GTTCTCACGTGTTTAA,0.29 kcal/mol
15,TATTGCACGTGCTGGT,-0.18 kcal/mol
16,TTTGGCACGTGGGTCA,-0.18 kcal/mol
17,TGAGACACGTGGGGAT,-0.08 kcal/mol
18,GTGGGCACGTGGATGC,-0.02 kcal/mol
19,CGAGGCACGTGAGGCG,0.06 kcal/mol
20,TGTACCACGTGGTGTA,-0.22 kcal/mol
21,CTGCGCACGTGGGGTA,-0.35 kcal/mol
22,AATAACACGTGAGGGG,0.32 kcal/mol
23,CGGGCCACGTGATTGG,-0.03 kcal/mol

row,Sequence,relative binding free energy
1,TTATGCACGTGTTGGG,0.06 kcal/mol
2,TCGTTCACGTGGGATC,0.29 kcal/mol
3,GTGCACACGTGCAGGT,0.15 kcal/mol
4,TTACGCACGTGGTGCT,-0.26 kcal/mol
5,GTTTACACGTGTATGA,0.24 kcal/mol
6,ATTGTCACGTGTTGAG,-0.02 kcal/mol
7,TTAGTCACGTGAGATA,0.11 kcal/mol
8,AGGGGCACGTGAATTG,-0.05 kcal/mol
9,GTCGGCACGTGCGGTT,-0.12 kcal/mol
10,TAGGCCACGTGGGAGT,-0.17 kcal/mol
11,TGTAGCACGTGCAAGT,-0.13 kcal/mol
12,ATATGCACGTGGTTAC,-0.08 kcal/mol
13,GGCGGCACGTGGGGCA,-0.19 kcal/mol
14,AGGAACACGTGGTGTA,-0.13 kcal/mol
15,TTGATCACGTGGAACT,0.27 kcal/mol
16,ATTTACACGTGTAGGT,0.12 kcal/mol
17,CAGGTCACGTGTTAGT,0.27 kcal/mol
18,GGAGACACGTGGGCTG,-0.08 kcal/mol
19,CGTTACACGTGGGAAA,0.2 kcal/mol
20,TGAGGCACGTGGCATT,-0.17 kcal/mol
21,GTTGGCACGTGTGGGG,0.09 kcal/mol
22,TTGATCACGTGTTGGG,0.16 kcal/mol
23,CTCAGCACGTGGTGGT,-0.13 kcal/mol

row,Sequence,relative binding free energy
1,GCGATCACGTGGGGCG,0.12 kcal/mol
2,ATTTGCACGTGTAGCT,-0.11 kcal/mol
3,TTTAACACGTGTTGTG,-0.07 kcal/mol
4,GGCTTCACGTGATTGG,0.32 kcal/mol
5,GGTGGCACGTGTCATG,-0.06 kcal/mol
6,GTTGTCACGTGAAAAG,0.28 kcal/mol
7,ACACGCACGTGGGTGG,-0.25 kcal/mol
8,GTTTTCACGTGCTTGC,0.27 kcal/mol
9,AAGAGCACGTGTAGTG,-0.09 kcal/mol
10,TGTTTCACGTGTAGAA,0.34 kcal/mol
11,TAGGTCACGTGTTAGT,0.11 kcal/mol
12,CGTTCCACGTGAGTGG,0.21 kcal/mol
13,TTTATCACGTGATGCT,0.19 kcal/mol
14,TTCATCACGTGGTAGG,0.14 kcal/mol
15,TCAAGCACGTGTGGGA,0.07 kcal/mol
16,TTGGGCACGTGGTCGA,-0.18 kcal/mol
17,GGGTCCACGTGTGTAG,0.02 kcal/mol
18,TGGGGCACGTGAATTA,0.13 kcal/mol
19,GTTTGCACGTGGTAAT,0.05 kcal/mol
20,AGATGCACGTGCGGAT,-0.02 kcal/mol
21,CTGATCACGTGGGTTA,-0.04 kcal/mol
22,TCAATCACGTGTGGCT,0.19 kcal/mol
23,GGTGGCACGTGGCAAG,-0.07 kcal/mol

row,Sequence,relative binding free energy
1,ATTGTCACGTGTGTTA,-0.03 kcal/mol
2,TGCCGCACGTGCGTGG,-0.04 kcal/mol
3,TTAGGCACGTGTGGTG,-0.02 kcal/mol
4,TAGAGCACGTGTAAGG,0.05 kcal/mol
5,CTAGGCACGTGCGGGG,-0.1 kcal/mol
6,TTTTGCACGTGTTTGG,0.09 kcal/mol
7,GTTTGCACGTGATGCT,0.18 kcal/mol
8,TTAAACACGTGGGGTT,-0.15 kcal/mol
9,AGGCTCACGTGCTGGG,0.22 kcal/mol
10,AAGGTCACGTGGCATT,0.1 kcal/mol
11,TGCGGCACGTGCGTTT,-0.14 kcal/mol
12,AGTACCACGTGTGAGT,0.06 kcal/mol
13,TGGGGCACGTGGCTGC,-0.2 kcal/mol
14,GTTAGCACGTGTATGG,0.1 kcal/mol
15,TTCCTCACGTGATGGG,0.35 kcal/mol
16,AAGTGCACGTGATAAT,0.11 kcal/mol
17,CTGTACACGTGGGGAG,0 kcal/mol
18,TTGGGCACGTGGTAGA,-0.04 kcal/mol
19,GGGCACACGTGAAGGA,0.38 kcal/mol
20,TATAGCACGTGGGGGC,-0.24 kcal/mol
21,TTGTGCACGTGCCTGG,-0.18 kcal/mol
22,ATGGACACGTGCTGTG,-0.2 kcal/mol
23,AGAAGCACGTGCGTGG,-0.1 kcal/mol
